# The whole screen tested about 52,000 compounds, of which about 1,700 (3.3%) were called active. Cut-off read from the data, not from the text of the source: active = survival mostly below about 52% (no sharp cut-off); inactive = mostly above about 56%. The list shows a part of the results.
# Test system: Wild type
# Assay: S. aureus survival, RN4220 and DeltatarO strains – OD600, teichoic acid synthesis inhibitors, primary screen (AID 463173)
# Conditions: S. aureus RN4220 wild type/DeltatarO growth, OD600, 18 h, active compounds read low, screened at 18.75 µg/mL (by protocol)
row,Compound,survival
1,CC1CCCCN1C(=O)c1ccc2c(c1)N(Cc1cccc(Cl)c1)C(=O)c1ccccc1S2=O (centres undefined),inactive: 101%
2,O=C(c1cccc(F)c1)c1ccc2c(c1)CCCO2,inactive: 101%
3,CCCCNC(=O)c1cccc(-n2cnc3cccnc32)c1C,inactive: 68%
4,CN1C(=O)SC(CC(=O)O)C1=O (centres undefined),inactive: 108%
5,Cc1cc(N(C)Cc2ccccc2)n2nc(-c3ccc(C(C)(C)C)cc3)nc2n1,inactive: 77%
6,CCc1ccc(-n2nc3cc(C)c(NC(=O)c4ccccc4C)cc3n2)cc1,inactive: 75%
7,O=C(CCN1CCc2ccccc2C1)Nc1ccc(F)c(F)c1,inactive: 100%
8,CCOc1ccc(-c2c(C)nn3c(C)c(C(=O)NCc4ccc(Cl)cc4)cnc23)cc1OCC,inactive: 123%
9,COc1ccc(OCCn2nnc3sc4c(c3c2=O)CCC(C(C)(C)C)C4)cc1 (centres undefined),inactive: 122%
10,CC1CCN(c2nc3c(-c4cccc(Br)c4)nnn3c3ccccc23)CC1,inactive: 85%
11,COc1ccc(CNC(=O)CCc2c(C)nn(-c3ccc(N4CCCCC4)nn3)c2C)cc1,inactive: 83%
12,CCCCCn1c(=O)[nH]c2cc(C(=O)NCCN(C)CCCC)ccc2c1=O,inactive: 70%
13,CCC(NC(=O)Nc1cc(Cl)ccc1OC)c1c(-n2cccc2)sc2c1CCN(C)C2 (centres undefined),inactive: 72%
14,N=c1n(CCO)c2ccccc2n1Cc1ccccc1F,inactive: 74%
15,COc1ccc(CCNC(=O)c2cc(=O)c3cc(C)cc(C)c3o2)cc1OC,inactive: 93%
16,O=C(CSc1c2c(nc3ccc(Cl)cc13)CCCC2)NCc1ccccc1Cl,inactive: 116%
17,O=C(OCc1ccco1)c1ccc2c(c1)N(Cc1cccc(F)c1)C(=O)c1ccccc1S2,inactive: 66%
18,CCOc1ccccc1NC(=O)CC(c1ccc(F)cc1)N1Cc2ccccc2C1=O (centres undefined),inactive: 80%
19,Cc1ccc(-c2cc(C(=O)OCC(=O)c3ccccc3)c3cccc(Cl)c3n2)cc1,inactive: 102%
20,CCC(Sc1nc2ccccc2c2nc(CCn3c(C)nc4ccccc43)nn12)C(=O)Nc1ccc(F)cc1 (centres undefined),inactive: 73%

row,Compound,survival
1,COc1ccc(Br)c(C(=O)Nc2cc3c(cc2N2CCCC2)n(C)c(=O)c(=O)n3C)c1,inactive: 83%
2,COc1ccc(CCNC(=O)CCCn2c(=O)c3cccn3c3ccccc32)cc1OC,inactive: 63%
3,COc1ccccc1N1CCN(C(=O)C2CCN(S(=O)(=O)Cc3ccccc3)CC2)CC1,inactive: 84%
4,CCC(Cc1ccccc1)NC(=O)CN1C(=O)COc2ccc(S(=O)(=O)N3CCCCCC3)cc21 (centres undefined),inactive: 118%
5,Cc1cc2c(cc1NC(=O)c1ccccc1C)n(C)c(=O)c(=O)n2C,inactive: 55%
6,CCOCCCNC(=O)C1CCN(C(=O)c2cc3sccc3n2C)CC1,inactive: 79%
7,CC1Cc2ccccc2N1C(=O)c1cc2n(n1)C(C(F)(F)F)CC(c1ccco1)N2 (centres undefined),inactive: 110%
8,CCCNC(=O)CSc1nnc(-c2cccnc2)n1C1CCCCC1,inactive: 100%
9,CC(C)CCN(Cc1ccco1)C(=O)c1cc2c(s1)-c1ccccc1OC2,active: 7%
10,COc1ccc(NC(=O)CCCN2C(=O)C(c3ccccc3)Oc3cccnc32)c(OC)c1 (centres undefined),inactive: 86%
11,CCc1ccc(CNC(=O)CCCN2C(=O)CCn3nc(-c4cccn4C)cc32)cc1,inactive: 75%
12,CCc1ccc2oc(C(=O)Nc3cccc(Cl)c3C)cc(=O)c2c1,inactive: 88%
13,O=C(O)Cn1cnc2ccccc2c1=O,inactive: 116%
14,COc1cc(-c2nnc(SCCOc3ccc(Cl)cc3)o2)cc(OC)c1OC,inactive: 91%
15,O=C(COc1ccccc1)OCc1cc(=O)n2nc(C3CC3)sc2n1,inactive: 85%
16,CCCNC(=O)N1c2ccc(F)cc2CCC1C (centres undefined),inactive: 113%
17,Cc1cccc(N2CCN(C(=O)Cc3c(C(=O)O)c(C)cn3C)CC2)c1C,inactive: 70%
18,Cc1ccc(C(=O)c2c(N)c(-c3nc(-c4ccc5c(c4)OCO5)cs3)c3ccccn23)cc1C,inactive: 95%
19,COCc1nn2cc(-c3ccc(C)cc3)nc2s1,inactive: 111%
20,Cc1ccc(C(=O)Nc2cc(-c3nc4ncccc4o3)ccc2C)c(C)c1,inactive: 73%

row,Compound,survival
1,CC(=O)c1ccc(N2CCN(C(=O)C3CCN(S(=O)(=O)c4c(C)noc4/C=C/c4ccc(C)cc4)CC3)CC2)cc1,inactive: 127%
2,CC(=O)N1CCc2c(sc3c2c(=O)n(Cc2ccccc2)c(=O)n3Cc2ccc(C)cc2)C1,inactive: 92%
3,COC(=O)c1ccc(Cn2cnc3nc4c(cc3c2=O)CCCC4)cc1,inactive: 85%
4,CCOc1ccccc1CNC(=O)C1CCN(S(=O)(=O)c2ccc3[nH]c(=O)ccc3c2)CC1,inactive: 19%
5,CCOC(=O)c1c(C)oc2ncnc(Nc3ccc(OC)cc3OC)c12,inactive: 94%
6,COc1ccccc1NC(=O)CSC1=Nc2ccccc2C2=NC(CCC(=O)NCCc3ccccc3)C(=O)N12 (centres undefined),inactive: 74%
7,CCOc1ccccc1NC(=O)Cn1ncc2c(=O)oc3ccc(C)cc3c21,inactive: 89%
8,Cc1nc(NCC2CCCO2)c2nnn(Cc3c(F)cccc3Cl)c2n1 (centres undefined),inactive: 103%
9,CC1(C)CC(=O)c2cc(-c3ccccc3)n(CC(=O)O)c2C1,inactive: 113%
10,O=C(Nc1nc2c(s1)CCCCCC2)Nc1ccc(F)cc1F,active: -2%
11,CCOc1ccc(NC2=NCCC(=O)N2Cc2cccs2)cc1,inactive: 115%
12,O=C1CSC(=O)N1CC(O)Cn1c2ccccc2c2ccccc21 (centres undefined),inactive: 111%
13,COc1ccc(N2CCN(C(c3ccccc3)c3sc4nc(-c5ccco5)nn4c3O)CC2)cc1 (centres undefined),inactive: 69%
14,CCN(CC)C(=O)Nc1ccc(I)cc1,inactive: 115%
15,Cc1ccc(C(=O)N2CCc3cc(CNS(=O)(=O)c4cccs4)ccc32)cc1,inactive: 77%
16,CN1C(=O)Cc2cc(S(=O)(=O)NCCc3ccc(Cl)cc3)ccc21,inactive: 136%
17,COc1ccc(-c2noc(CSc3nnc(C)n3-c3ccc(C)cc3)n2)cc1OC,inactive: 84%
18,O=C(NC1CCCCC1NC(=O)c1ccco1)c1ccco1 (centres undefined),inactive: 105%
19,CCCOc1ccc(NC(=O)CC2C(=O)N(c3cccc(OC)c3)C(=O)N2Cc2cccs2)cc1 (centres undefined),inactive: 76%

# — PubChem BioAssay AID463173 (ICCB-Longwood Screening Facility, Harvard Medical School, 2010)
